# Measured values as given in the supplement of paper PMC8728848.
# Some of the results follow.
# Legend:
# Assay in all cases: glycan array binding signal (z-score within array); higher = stronger binding
# Conditions in all cases: glycan notation: IUPAC condensed, linker removed
# Neu5Ac(a2-3)GalNAc = target: Neu5Ac(a2-3)GalNAc
# How it was run: (§1)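 The binding signal is a Z-score computed within each array. Data were drawn from 3228 arrays in the Consortium for Functional Glycomics database, restricted to those with a known protein sequence. Scores were averaged over arrays of the same protein sequence at different concentrations or buffers, and over linkers, and negative values can be taken as non-binding.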
# [1] = target: Neu5Ac(a2-3)GalNAc(b1-4)GlcNAc
# How it was run: as §1
# [2] = target: Neu5Ac(a2-3)[GalNAc(b1-4)]Gal(b1-4)Glc
# How it was run: as §1
# [3] = target: Neu5Ac(a2-3)[GalNAc(b1-4)]Gal(b1-4)GlcNAc
# How it was run: as §1
# [4] = target: Neu5Ac(a2-3)[GalNAc(b1-4)]Gal(b1-4)GlcNAc(b1-3)GalNAc
# How it was run: as §1
# [5] = target: Neu5Ac(a2-3)[Neu5Ac(a2-6)]GalNAc
# How it was run: as §1
# Neu5Ac(a2-6)Gal = target: Neu5Ac(a2-6)Gal
# How it was run: as §1
# [6] = target: Neu5Ac(a2-6)Gal(b1-3)GlcNAc(b1-3)[Gal(b1-4)GlcNAc(b1-6)]Gal(b1-4)Glc
# How it was run: as §1
# Neu5Ac(a2-6)Gal(b1-4)Glc = target: Neu5Ac(a2-6)Gal(b1-4)Glc
# How it was run: as §1
# [7] = target: Neu5Ac(a2-6)Gal(b1-4)GlcNAc
# How it was run: as §1
# [8] = target: Neu5Ac(a2-6)Gal(b1-4)GlcNAc(b1-2)Man(a1-3)Man(b1-4)GlcNAc(b1-4)GlcNAc
# How it was run: as §1
# [9] = target: Neu5Ac(a2-6)Gal(b1-4)GlcNAc(b1-2)Man(a1-3)[Gal(b1-4)GlcNAc(b1-2)Man(a1-6)]Man(b1-4)GlcNAc(b1-4)GlcNAc
# How it was run: as §1
# [10] = target: Neu5Ac(a2-6)Gal(b1-4)GlcNAc(b1-2)Man(a1-3)[GlcNAc(b1-2)Man(a1-6)]Man(b1-4)GlcNAc(b1-4)GlcNAc
# How it was run: as §1
# [11] = target: Neu5Ac(a2-6)Gal(b1-4)GlcNAc(b1-2)Man(a1-3)[GlcNAc(b1-2)Man(b1-4)GlcNAc(b1-2)Man(a1-6)]Man(b1-4)GlcNAc(b1-4)GlcNAc
# How it was run: as §1
# [12] = target: Neu5Ac(a2-6)Gal(b1-4)GlcNAc(b1-2)Man(a1-3)[Man(a1-6)]Man(b1-4)GlcNAc(b1-4)GlcNAc
# How it was run: as §1
# [13] = target: Neu5Ac(a2-6)Gal(b1-4)GlcNAc(b1-2)Man(a1-3)[Neu5Ac(a2-6)Gal(b1-4)GlcNAc(b1-2)Man(a1-6)]Man(b1-4)GlcNAc(b1-4)GlcNAc
# How it was run: as §1
# [14] = target: Neu5Ac(a2-6)Gal(b1-4)GlcNAc(b1-2)Man(a1-6)Man(b1-4)GlcNAc(b1-4)GlcNAc
# How it was run: as §1
# [15] = target: Neu5Ac(a2-6)Gal(b1-4)GlcNAc(b1-2)Man(a1-6)[Gal(b1-4)GlcNAc(b1-2)Man(a1-3)]Man(b1-4)GlcNAc(b1-4)GlcNAc
# How it was run: as §1
# [16] = target: Neu5Ac(a2-6)Gal(b1-4)GlcNAc(b1-2)Man(a1-6)[GlcNAc(b1-2)Man(a1-3)]Man(b1-4)GlcNAc(b1-4)GlcNAc
# How it was run: as §1
# [17] = target: Neu5Ac(a2-6)Gal(b1-4)GlcNAc(b1-2)Man(a1-6)[Man(a1-3)]Man(b1-4)GlcNAc(b1-4)GlcNAc
# How it was run: as §1
# [18] = target: Neu5Ac(a2-6)Gal(b1-4)GlcNAc(b1-3)Gal(b1-3)GlcNAc
# How it was run: as §1
# [19] = target: Neu5Ac(a2-6)Gal(b1-4)GlcNAc(b1-3)Gal(b1-4)GlcNAc
# How it was run: as §1
# [20] = target: Neu5Ac(a2-6)Gal(b1-4)GlcNAc(b1-3)Gal(b1-4)GlcNAc(b1-3)Gal(b1-4)GlcNAc
# How it was run: as §1
# [21] = target: Neu5Ac(a2-6)Gal(b1-4)GlcNAc(b1-3)Gal(b1-4)[Fuc(a1-3)]GlcNAc(b1-3)Gal(b1-4)[Fuc(a1-3)]GlcNAc
# How it was run: as §1
# [22] = target: Neu5Ac(a2-6)Gal(b1-4)GlcNAc(b1-3)GalNAc
# How it was run: as §1
# [23] = target: Neu5Ac(a2-6)Gal(b1-4)GlcNAc6S
# How it was run: as §1
# Neu5Ac(a2-6)GalNAc = target: Neu5Ac(a2-6)GalNAc
# How it was run: as §1
# [24] = target: Neu5Ac(a2-6)GalNAc(b1-4)GlcNAc
# How it was run: as §1
# [25] = target: Neu5Ac(a2-6)GlcNAc(b1-4)GlcNAc
# How it was run: as §1
# [26] = target: Neu5Ac(a2-6)GlcNAc(b1-4)GlcNAc(b1-4)GlcNAc
# How it was run: as §1
# Neu5Ac(a2-8)Neu5Ac = target: Neu5Ac(a2-8)Neu5Ac
# How it was run: as §1
# [27] = target: Neu5Ac(a2-8)Neu5Ac(a2-3)Gal(b1-3)GalNAc(b1-4)[Neu5Ac(a2-8)Neu5Ac(a2-3)]Gal(b1-4)Glc
# How it was run: as §1
# [28] = target: Neu5Ac(a2-8)Neu5Ac(a2-3)Gal(b1-4)Glc
# How it was run: as §1
# [29] = target: Neu5Ac(a2-8)Neu5Ac(a2-3)[Gal(b1-3)GalNAc(b1-4)]Gal(b1-4)Glc
# How it was run: as §1
# [30] = target: Neu5Ac(a2-8)Neu5Ac(a2-3)[GalNAc(b1-4)]Gal(b1-4)Glc
# How it was run: as §1
# [31] = target: Neu5Ac(a2-8)Neu5Ac(a2-8)Neu5Ac
# How it was run: as §1
# [32] = target: Neu5Ac(a2-8)Neu5Ac(a2-8)Neu5Ac(a2-3)Gal(b1-4)Glc
# How it was run: as §1
# [33] = target: Neu5Ac(a2-8)Neu5Ac(a2-8)Neu5Ac(a2-3)[GalNAc(b1-4)]Gal(b1-4)Glc
# How it was run: as §1
# [34] = target: Neu5Ac(a2-8)Neu5Ac(a2-8)Neu5Ac(a2-8)Neu5Ac(a2-3)[GalNAc(b1-4)]Gal(b1-4)Glc
# How it was run: as §1
# Neu5Ac(b1-6)GalNAc = target: Neu5Ac(b1-6)GalNAc
# How it was run: as §1
# [35] = target: Neu5Ac(b2-6)Gal(b1-4)GlcNAc
# How it was run: as §1
# Neu5Ac(b2-6)GalNAc = target: Neu5Ac(b2-6)GalNAc
# How it was run: as §1
# [36] = target: Neu5Ac9Ac(a2-3)Gal(b1-3)GlcNAc
# How it was run: as §1
# [37] = target: Neu5Ac9Ac(a2-3)Gal(b1-4)GlcNAc
# How it was run: as §1
# [38] = target: Neu5Ac9Ac(a2-6)Gal(b1-4)GlcNAc
# How it was run: as §1
# [39] = target: Neu5Gc(a2-3)Gal(b1-3)GlcNAc
# How it was run: as §1
# [40] = target: Neu5Gc(a2-3)Gal(b1-3)[Fuc(a1-4)]GlcNAc
# How it was run: as §1
# Neu5Gc(a2-3)Gal(b1-4)Glc = target: Neu5Gc(a2-3)Gal(b1-4)Glc
# How it was run: as §1
# [41] = target: Neu5Gc(a2-3)Gal(b1-4)GlcNAc
# How it was run: as §1
# [42] = target: Neu5Gc(a2-3)Gal(b1-4)[Fuc(a1-3)]GlcNAc
# How it was run: as §1
# [43] = target: Neu5Gc(a2-6)Gal(b1-4)GlcNAc
# How it was run: as §1
# Neu5Gc(a2-6)GalNAc = target: Neu5Gc(a2-6)GalNAc
# How it was run: as §1
# [44] = target: Neu5Gc(b2-6)Gal(b1-4)GlcNAc
# How it was run: as §1
binder,measurement,setting,value
"FedF (Escherichia coli), Q47212 (protein) MRLKYILIIPLLLISLSVFASTLQVDKSVSYDWINSSASSAQVTGTLLGTGKTNTTQMPALYTWQHQIYNVNFIPSSSGTLTCQAGTILVWKNGRETQYALECRVSIHHSSGSINESQWGQQSQVGFGTACGNKKCRFTGFEISLRIPPNAQTYPLSSGDLKGSFSLTNKEVNWSASIYVPAIAKSYRLDTSITLPDTVNLKQNQATPVYYTFSAPSVSNTITGIPNQNDMPSSNVKLTIGPIQSKTTALYVQPDATGSWYDLSKSITMTVVKSSMLNFKGINAKPGNVTLSVPIVFEIQ",glycan array binding signal (z-score),Neu5Ac(a2-3)GalNAc,-0.336
same,glycan array binding signal (z-score),[1],-0.221
same,glycan array binding signal (z-score),[2],-0.336
same,glycan array binding signal (z-score),[3],-0.135
same,glycan array binding signal (z-score),[4],0.24
same,glycan array binding signal (z-score),[5],-0.139
same,glycan array binding signal (z-score),Neu5Ac(a2-6)Gal,0.086
same,glycan array binding signal (z-score),[6],-0.171
same,glycan array binding signal (z-score),Neu5Ac(a2-6)Gal(b1-4)Glc,-0.197
same,glycan array binding signal (z-score),[7],-0.257
same,glycan array binding signal (z-score),[8],-0.086
same,glycan array binding signal (z-score),[9],-0.172
same,glycan array binding signal (z-score),[10],-0.171
same,glycan array binding signal (z-score),[11],0.022
same,glycan array binding signal (z-score),[12],-0.11
same,glycan array binding signal (z-score),[13],-0.12
same,glycan array binding signal (z-score),[14],0.04
same,glycan array binding signal (z-score),[15],-0.097
same,glycan array binding signal (z-score),[16],-0.154
same,glycan array binding signal (z-score),[17],-0.107
same,glycan array binding signal (z-score),[18],0.251
same,glycan array binding signal (z-score),[19],-0.344
same,glycan array binding signal (z-score),[20],-0.084
same,glycan array binding signal (z-score),[21],-0.254
same,glycan array binding signal (z-score),[22],0.274
same,glycan array binding signal (z-score),[23],-0.077
same,glycan array binding signal (z-score),Neu5Ac(a2-6)GalNAc,-0.172
same,glycan array binding signal (z-score),[24],-0.187
same,glycan array binding signal (z-score),[25],-0.162
same,glycan array binding signal (z-score),[26],-0.193
same,glycan array binding signal (z-score),Neu5Ac(a2-8)Neu5Ac,0.043
same,glycan array binding signal (z-score),[27],-0.166
same,glycan array binding signal (z-score),[28],0.101
same,glycan array binding signal (z-score),[29],-0.138
same,glycan array binding signal (z-score),[30],0.205
same,glycan array binding signal (z-score),[31],-0.082
same,glycan array binding signal (z-score),[32],-0.283
same,glycan array binding signal (z-score),[33],0.274
same,glycan array binding signal (z-score),[34],-0.173
same,glycan array binding signal (z-score),Neu5Ac(b1-6)GalNAc,-0.365
same,glycan array binding signal (z-score),[35],-0.286
same,glycan array binding signal (z-score),Neu5Ac(b2-6)GalNAc,-0.117
same,glycan array binding signal (z-score),[36],-0.186
same,glycan array binding signal (z-score),[37],-0.13
same,glycan array binding signal (z-score),[38],0.054
same,glycan array binding signal (z-score),[39],0.252
same,glycan array binding signal (z-score),[40],-0.306
same,glycan array binding signal (z-score),Neu5Gc(a2-3)Gal(b1-4)Glc,-0.182
same,glycan array binding signal (z-score),[41],-0.223
same,glycan array binding signal (z-score),[42],-0.223
same,glycan array binding signal (z-score),[43],-0.063
same,glycan array binding signal (z-score),Neu5Gc(a2-6)GalNAc,-0.115
same,glycan array binding signal (z-score),[44],0.178
